# In the RNAGym collection of RNA variant scans (doi:10.1093/nar/gkz1192):
# The source gives no read counts; variants with many changes may rest on few reads.
# B1: CPEB3 Ribozyme (parent)
# chain: UAACAGGGGGCCACAGCAGAAGCGUUCACGUCGCAGCCCCUGUCAGAUUCUGGUGAAUCUGCGAAUUCUGCUGUAUAUCUC
# Variants of: B1
# Assay: self-cleavage, relative activity (ratio to wild type); higher = more cleavage; in vitro, sequencing
# Procedure, shortened: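 CPEB3 self-cleaving ribozyme mutant libraries were made by rounds of error-prone PCR, barcoded, and transcribed in vitro with T7 RNA polymerase for 5 hours at 37°C. Cleavage occurred during transcription and a 15 min DNase I step before EDTA stop. RNAs were reverse transcribed with template switching and Illumina-sequenced, with DNA sequencing mapping barcodes to variants. Relative activity is the variant's cleaved/total read fraction divided by wild type's (minimum 5 reads), averaged across three batches.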
row,Variant,self-cleavage
1,UAACAGGGUGCCACAGCAGAGGCGUUCACGCCGCAGCCCCUGUCGGAUUCUGGUGAAUCUGCGAAUUCUGCUGCAUAUCUC [G9U A21G U31C A45G U74C],0.13
2,UAACAGGGUGCCACAGCAGAGGCGUUCACGUCGCAGCCCCUGUCAGAUCCUGGUGAAUCUGCGAAUUCUGCUGUAUAUCUC [G9U A21G U49C],0.14
3,UAACAGGGUGCCACAGCAGAAGCGUUCGCGUCGCAGCCCCUGUCAGAUUCUGGUGAGCCUGCGAAUUCUGCUGUAUAUCUC [G9U A28G A57G U58C],0.09
4,UAACAGGGUGCCACAGCAGAAGCGUUCGCGUCGCAGCCCCCGUCAGAUUCUGGUGAAUCUGCGAAUUCUGCUGUAUAUCUC [G9U A28G U41C],0.17
5,UAACAGGGUGCCACAGCAGAAGCGUUCUCGUCGCAGCCCCUGUCAGAUUCUGGUGGAUCCGCGAAUUCUGCUGUAUAUCCC [G9U A28U A56G U60C U80C],0.17
6,UAACAGGGUGCCACAGCAGAAGCGUUCACGUCGCCGCCCCUGUCGGAUCCUGGUGAAUCUGCGAAUUCUGCUGUAUAUCUC [G9U A35C A45G U49C],0.17
7,UAACAGGGUGCCACAGCAGAAGCGUUCACGUCGCAGCCCCUGUCGGACUCUGGUGAAUCUGCGAAUUCCGCUGUAUACCUC [G9U A45G U48C U69C U78C],0.07
8,UAACAGGGUGCCACAGCAGAAGCGUUCACGUCGCAGCCCCUGUCGGAUCCUGGUGAACCUGCGAAUCCUGCAGUAUAUCUC [G9U A45G U49C U58C U67C U72A],0.06
9,UAACAGGGUGCCACAGCAGAAGCGUUCACGUCGCAGCCCCUGUCAGAUUCUGGUGGAUCUGCGAACUCUGCUGUAUAUCUC [G9U A56G U66C],0.4
10,UAACAGGGUGCCACAGCAGAAGCGUUCACGUCGCAGCCCCUGUCAGAUUCUGGUGGAUCUGCGAAUCCUGCUGUAUAUCUC [G9U A56G U67C],0.12
11,UAACAGGGUGCCACAGCAGAAGCGUUCACGUCGCAGCCCCUGUCAGAUUCUGGUGAAUCUGCGAGUUCUGCUGUAUACCUC [G9U A65G U78C],0.1
12,UAACAGGGUGCUACAGCGGAAGCGUUCACGUCGCGGCCCCUGUCAGAUUCUGGUGAAUCUGCGAAUUCUGCUGUAUAUCUC [G9U C12U A18G A35G],0.08
13,UAACAGGGUGCUACAGCAUACGCGUUCACAUCGCAGCCCCUGCCAGAUUCUGGUGAAUCUGCGAACUCUGCUGUAUAUCUC [G9U C12U G19U A21C G30A U43C U66C],0.03
14,UAACAGGGUGCCACAGGAGAAGCGAUCACGUCGCAGCCCCUGCCUGAUUCUGGUGAAUCUGCGAACUCUGCUGUAUAUCUC [G9U C17G U25A U43C A45U U66C],0.05
15,UAACAGGGUGCCACAGUAGUAGCGUUCACGUCGCAGCCCCUGUCAGAUUCUGGUGAAUCUGCGAAUUCUGCUGUAUAUCUC [G9U C17U A20U],0.06
16,UAACAGGGUGCCACAGCAGAAGUGUCCACGUCGCAGCCCCUGUCAGAUUCUGGUGAAUCUGCGAAUUCUGCUGUAUAUCUC [G9U C23U U26C],0.15
17,UAACAGGGUGCCACAGCAGAAGCGUUCACGUCGCAGCUCCUGUCAGAUUCUGGUGAAUCUGCGAAUUCUGCAGUAUACCUC [G9U C38U U72A U78C],0.08

row,Variant,self-cleavage
1,UAACAGGGUGCCACAGCAGAAGCGUUCACGUCGCAGCCCAUGUCAGAUUCUGGUGGAUCUGCGAAUUCUGCUGUAUGUCUC [G9U C40A A56G A77G],0.31
2,UAACAGGGUGCCACAGCAGAAGCGUUCACGUCGCAGCCCAUGUCAGAUUCUGGUGAACCUGCGAAUUCUGCUGUGUAUCUC [G9U C40A U58C A75G],0.06
3,UAACAGGGUGCCACAGCAGAAGCGUUCACGUCGCAGCCCCUGUUAGAUUCUGGUGGAGCUGCGAAUUCUGCUGUAUGUCUC [G9U C44U A56G U58G A77G],0.13
4,UAACAGGGUGCCACAUCAGGAGCGUUCACGUCGCUGCCCCUGUCAGAUUCUGGUGAAUCUGCUAAUUCUGCUGUACAUCUC [G9U G16U A20G A35U G63U U76C],0.19
5,UAACAGGGUGCCACAGCAGAAGCGUUCACGUCUCUGCCCCAGACAGAUUCUGGUGAAUCUGCGAAUUCAGCUGUAUAUCUC [G9U G33U A35U U41A U43A U69A],0.04
6,UAACAGGGUGCCACAGCAGAAGCGUUCACGUCUCAGCCCCUGUCAGAUUGUGGUGAAUCUGCGAAUUCUGCUGUAUAUCUC [G9U G33U C50G],0.04
7,UAACAGGGUGCCACAGCAGAAGCGUUCACGUCGCACCCCCUGUCAGAUUUUGGCGAAUCUGCGAACUCUGCUGUAUAUCUC [G9U G36C C50U U54C U66C],0.07
8,UAACAGGGUGCCACAGCAGAAGCGUUCACGUCGCAGCCCCUGUCAGAUUCUGUUGAGUCUGCGAAUUCUGCUGUAUAUCUC [G9U G53U A57G],0.08
9,UAACAGGGUGCCACAGCAGAAGCGUUCACGUCGCAGCCCCUGUCAGAUUCUGGUGAAUCUGCGAAUUCUACUGAAUAUCUC [G9U G70A U74A],0.04
10,UAACAGGGUGCCACAGCAGAAGCGAUCAGGACGCAGCCCCUGCCUGAUUCUGGUGAAUCUGCGAAUCCUGCUGUAUAUCUC [G9U U25A C29G U31A U43C A45U U67C],0.02
11,UAACAGGGUGCCACAGCAGAAGCGCUCAUGUCGCAGCCCCUGUCAGAUUCUGGUGAACCUGCGAAUUCUGCAGUAUAUCUC [G9U U25C C29U U58C U72A],0.06
12,UAACAGGGUGCCACAGCAGAAGCGCUCACGUCGCAGCCCCCGUCAGAUUCUGAUGAAUCUGCGAAUUCUGCUGUAUAUCUC [G9U U25C U41C G53A],0.18
13,UAACAGGGUGCCACAGCAGAAGCGUACACGUCGCAGCCCCUGUCAGAUUCUGGCGAAUCUGUGAAUUCUGCUGUAUAUCUC [G9U U26A U54C C62U],0.03
14,UAACAGGGUGCCACAGCAGAAGCGUUCACGACGCAGCCCCUGUCAGGUUCUGGUGAAUCUGCGAAUUCUGCUGUAUAUCUC [G9U U31A A47G],0.07
15,UAACAGGGUGCCACAGCAGAAGCGUUCACGCCGCAGCCCCUGUCAGACUCUGGUGAAUCUGCGAAUUCUGCUGUAUAUCUC [G9U U31C U48C],0.06
16,UAACAGGGUGCCACAGCAGAAGCGUUCACGCCGCAGCCCCUGUCAGAUUCUGGUGAAUCUGCGAAUUCUGCUGCAUAUCUC [G9U U31C U74C],0.21
17,UAACAGGGUGCCACAGCAGAAGCGUUCACGUCGCAGCCCCUGGCAGAUUCUGGUGAAUCUGCGAAUUCUGCUGUUUAUCUC [G9U U43G A75U],0.19
